The list shows a part of the results.
Legend:
Test in all cases: glycan array binding signal (z-score within array); higher = stronger binding
Conditions in all cases: glycan notation: IUPAC condensed, linker removed
Fuc(a1-3)GlcNAc = molecular target: Fuc(a1-3)GlcNAc
Outline: (§1)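 Glycan array binding is given as a within-array Z-score, which can be read as non-binding when negative. The arrays, 3228 of them, came from the Consortium for Functional Glycomics database and were retained only where the protein sequence was available. Z-scores were averaged across arrays of the same protein sequence at different concentrations or buffers and across linkers.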

[1] = molecular target: Fuc(a1-3)[Gal(b1-4)]Glc6S
Outline: as §1

[2] = molecular target: Fuc(a1-3)[Gal(b1-4)]GlcNAc
Outline: as §1

[3] = molecular target: Fuc(a1-3)[Gal(b1-4)]GlcNAc(b1-2)Man
Outline: as §1

[4] = molecular target: Fuc(a1-3)[Gal(b1-4)]GlcNAc(b1-2)Man(a1-3)[Fuc(a1-3)[Gal(b1-4)]GlcNAc(b1-2)Man(a1-6)]Man(b1-4)GlcNAc(b1-4)GlcNAc
Outline: as §1

[5] = molecular target: Fuc(a1-3)[Gal(b1-4)]GlcNAc(b1-2)Man(a1-3)[Fuc(a1-3)[Gal(b1-4)]GlcNAc(b1-2)Man(a1-6)]Man(b1-4)GlcNAc(b1-4)[Fuc(a1-6)]GlcNAc
Outline: as §1

[6] = molecular target: Fuc(a1-3)[Gal(b1-4)]GlcNAc(b1-3)Gal(b1-3)[Fuc(a1-4)]GlcNAc
Outline: as §1

[7] = molecular target: Fuc(a1-3)[Gal(b1-4)]GlcNAc(b1-3)Gal(b1-4)[Fuc(a1-3)]GlcNAc
Outline: as §1

[8] = molecular target: Fuc(a1-3)[Gal(b1-4)]GlcNAc(b1-3)Gal(b1-4)[Fuc(a1-3)]GlcNAc(b1-3)Gal(b1-4)[Fuc(a1-3)]GlcNAc
Outline: as §1

[9] = molecular target: Fuc(a1-3)[Gal(b1-4)]GlcNAc(b1-3)GalNAc
Outline: as §1

[10] = molecular target: Fuc(a1-3)[Gal(b1-4)]GlcNAc(b1-6)GalNAc
Outline: as §1

[11] = molecular target: Fuc(a1-3)[Gal(b1-4)]GlcNAc(b1-6)[Gal(b1-3)GlcNAc(b1-3)]Gal(b1-4)Glc
Outline: as §1

[12] = molecular target: Fuc(a1-3)[Gal(b1-4)]GlcNAc6S
Outline: as §1

[13] = molecular target: Fuc(a1-3)[Gal3S(b1-4)]Glc
Outline: as §1

[14] = molecular target: Fuc(a1-3)[Gal3S(b1-4)]GlcNAc
Outline: as §1

[15] = molecular target: Fuc(a1-3)[Gal3S(b1-4)]GlcNAc6S
Outline: as §1

[16] = molecular target: Fuc(a1-3)[GalNAc(b1-4)]GlcNAc
Outline: as §1

[17] = molecular target: Fuc(a1-3)[GalNAc(b1-4)]GlcNAc6S
Outline: as §1

Fuc(a1-4)GlcNAc = molecular target: Fuc(a1-4)GlcNAc
Outline: as §1

Fuc(b1-3)GlcNAc = molecular target: Fuc(b1-3)GlcNAc
Outline: as §1

Gal(a1-2)Gal = molecular target: Gal(a1-2)Gal
Outline: as §1

Gal(a1-3)Gal = molecular target: Gal(a1-3)Gal
Outline: as §1

Gal(a1-3)Gal(b1-3)GlcNAc = molecular target: Gal(a1-3)Gal(b1-3)GlcNAc
Outline: as §1

[18] = molecular target: Gal(a1-3)Gal(b1-3)GlcNAc(b1-2)Man
Outline: as §1

[19] = molecular target: Gal(a1-3)Gal(b1-3)GlcNAc(b1-2)Man(a1-3)[Gal(a1-3)Gal(b1-3)GlcNAc(b1-2)Man(a1-6)]Man(b1-4)GlcNAc(b1-4)GlcNAc
Outline: as §1

[20] = molecular target: Gal(a1-3)Gal(b1-3)GlcNAc(b1-3)GalNAc
Outline: as §1

[21] = molecular target: Gal(a1-3)Gal(b1-3)GlcNAc(b1-6)GalNAc
Outline: as §1

[22] = molecular target: Gal(a1-3)Gal(b1-3)[Fuc(a1-4)]GlcNAc(b1-2)Man(a1-3)[Gal(a1-3)Gal(b1-3)[Fuc(a1-4)]GlcNAc(b1-2)Man(a1-6)]Man(b1-4)GlcNAc(b1-4)GlcNAc
Outline: as §1

Gal(a1-3)Gal(b1-4)Glc = molecular target: Gal(a1-3)Gal(b1-4)Glc
Outline: as §1

Gal(a1-3)Gal(b1-4)GlcNAc = molecular target: Gal(a1-3)Gal(b1-4)GlcNAc
Outline: as §1

[23] = molecular target: Gal(a1-3)Gal(b1-4)GlcNAc(b1-2)Man
Outline: as §1

[24] = molecular target: Gal(a1-3)Gal(b1-4)GlcNAc(b1-2)Man(a1-3)[Gal(a1-3)Gal(b1-4)GlcNAc(b1-2)Man(a1-6)]Man(b1-4)GlcNAc(b1-4)GlcNAc
Outline: as §1

[25] = molecular target: Gal(a1-3)Gal(b1-4)GlcNAc(b1-3)GalNAc
Outline: as §1

[26] = molecular target: Gal(a1-3)Gal(b1-4)GlcNAc(b1-6)GalNAc
Outline: as §1

[27] = molecular target: Gal(a1-3)Gal(b1-4)[Fuc(a1-3)]GlcNAc
Outline: as §1

[28] = molecular target: Gal(a1-3)Gal(b1-4)[Fuc(a1-3)]GlcNAc(b1-2)Man(a1-3)[Gal(a1-3)Gal(b1-4)[Fuc(a1-3)]GlcNAc(b1-2)Man(a1-6)]Man(b1-4)GlcNAc(b1-4)GlcNAc
Outline: as §1

Gal(a1-3)GalNAc = molecular target: Gal(a1-3)GalNAc
Outline: as §1

B1: PX9961J-bvu-499-24-499 (Bacteroides vulgatus) (protein)
chain: LNTDPSTAVPSDDAIKNIDDAQVALNGIYRLASAHSYYGDNYLYYADCRGEDVQARINKGAGRRVSPYYFFDVTADDNFNITLVWNQPYKVIHQANSLIEKLDAGNAGNARPEEVARIKSEALAMRGLALFDLTRLFGMPYTLDNGASLGVPIEIQTTLEDHAPERNTVAQCYEQVLKDLNDALGGLTKEKHDAYMNYWSVKALLSRVYLYMNDNENALKCAEEVINDNGGIYRLFTHDEYPSVWGKDFNSESLFEFYFTMSEPSGGSGGEGAPMVYADNVKDWNNLILTKAYLDLLNEDPEDVRHVFPHLPENAVADTLPVAAKGQPKYLIKYPGKSGSVTDAVSTVNPQDNDLCILRLSEVYLNAAEAAFKIGNTEKALTYLNAIVTRANPAKSVTSADLSLERILKERRKELVGEGHAFFDYMRNGKSVDRSGGWHLTMPEDARVIAPSDPRVALPIPQTEIDANPNIVQNPR
For B1, the “glycan array binding signal (z-score)” value (Fuc(a1-3)GlcNAc) was -0.332, the “glycan array binding signal (z-score)” value [1] was 0.943 and the “glycan array binding signal (z-score)” value [2] was -0.358. The “glycan array binding signal (z-score)” value [3] was -0.237, the “glycan array binding signal (z-score)” value [4] was 0.821 and the “glycan array binding signal (z-score)” value [5] was 0.341. For the same binder, the “glycan array binding signal (z-score)” value [6] was 0.414, the “glycan array binding signal (z-score)” value [7] was -0.672 and the “glycan array binding signal (z-score)” value [8] was -0.203. The “glycan array binding signal (z-score)” value [9] was -0.549, the “glycan array binding signal (z-score)” value [10] was -0.674 and the “glycan array binding signal (z-score)” value [11] was -0.373. The “glycan array binding signal (z-score)” value [12] was -0.361, the “glycan array binding signal (z-score)” value [13] was -0.464 and the “glycan array binding signal (z-score)” value [14] was 1.55. For the same binder, the “glycan array binding signal (z-score)” value [15] was 0.486, the “glycan array binding signal (z-score)” value [16] was 0.261 and the “glycan array binding signal (z-score)” value [17] was 0.049. The “glycan array binding signal (z-score)” value (Fuc(a1-4)GlcNAc) was 0.155, the “glycan array binding signal (z-score)” value (Fuc(b1-3)GlcNAc) was 0.396 and the “glycan array binding signal (z-score)” value (Gal(a1-2)Gal) was -0.036. The “glycan array binding signal (z-score)” value (Gal(a1-3)Gal) was -0.096, the “glycan array binding signal (z-score)” value (Gal(a1-3)Gal(b1-3)GlcNAc) was -0.556 and the “glycan array binding signal (z-score)” value [18] was -0.661. The “glycan array binding signal (z-score)” value [19] was 0.434, the “glycan array binding signal (z-score)” value [20] was -0.17 and the “glycan array binding signal (z-score)” value [21] was 1.19. For the same binder, the “glycan array binding signal (z-score)” value [22] was 2.95, the “glycan array binding signal (z-score)” value (Gal(a1-3)Gal(b1-4)Glc) was -0.491 and the “glycan array binding signal (z-score)” value (Gal(a1-3)Gal(b1-4)GlcNAc) was 0.539. The “glycan array binding signal (z-score)” value [23] was -0.342, the “glycan array binding signal (z-score)” value [24] was 0.825 and the “glycan array binding signal (z-score)” value [25] was 0.164. The “glycan array binding signal (z-score)” value [26] was 0.008, the “glycan array binding signal (z-score)” value [27] was 0.904 and the “glycan array binding signal (z-score)” value [28] was 0.201. The “glycan array binding signal (z-score)” value (Gal(a1-3)GalNAc) was -0.16.

From the supplement of paper PMC8728848
